The campaign covered roughly 39,000 compounds. About 220 (0.56%) showed activity. This is one part of the list.
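Also: static incubation at 37 °C against the wild-type strain, values averaged over two biological replicates.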

This experiment concerns Escherichia coli K-12 BW25113. Put plainly: relative growth (OD600 normalised to plate interquartile mean) (fraction); higher = less growth inhibition, active = 0.2 or less. The following applies: 50 µM; LB; incubation time: overnight (16-24 h).
On to `C[C@@H]1CN([C@H](C)CO)C(=O)CCCn2cc(nn2)CO[C@@H]1CN(C)C(=O)Nc1ccc(C(F)(F)F)cc1`, for which the relative growth is inactive: 0.969.
Turning to `CC(C)(C#N)c1cc(Cn2cncn2)cc(C(C)(C)C#N)c1`, the relative growth is inactive: 1.01.
Take `C[C@@H]1CN([C@H](C)CO)C(=O)c2cc(NC(=O)Cn3cnnn3)ccc2O[C@H]1CN(C)C(=O)Nc1ccc2c(c1)OCO2`: the relative growth was inactive: 0.999.
With `COc1ccc(CN(C)C[C@@H]2OCCCC[C@@H](C)Oc3ccc(NS(=O)(=O)c4ccc(C)cc4)cc3C(=O)N([C@H](C)CO)C[C@H]2C)cc1` the figure was inactive: 0.982; with `O=C(NO)c1ccc(C(=O)N/N=C/c2cccc(B(O)O)c2)cc1`, inactive: 0.98; with `COc1ccc(S(=O)(=O)Nc2ccc3c(c2)C(=O)N([C@@H](C)CO)C[C@H](C)[C@@H](CN(C)C(=O)CCC(F)(F)F)OCCCC[C@H](C)O3)cc1`, inactive: 0.987.
For `COc1ccc(CN(C)C[C@@H]2OCCCC[C@@H](C)Oc3ccc(NS(=O)(=O)c4cccs4)cc3C(=O)N([C@@H](C)CO)C[C@H]2C)cc1`, the relative growth is inactive: 1.01.
With `Cc1noc(C)c1S(=O)(=O)N(C)C[C@@H]1OCCCC[C@@H](C)Oc2ccc(NC(=O)Nc3ccc(C(F)(F)F)cc3)cc2C(=O)N([C@@H](C)CO)C[C@@H]1C`, the relative growth was inactive: 1.
Regarding `Cc1noc(C)c1S(=O)(=O)Nc1ccc2c(c1)C(=O)N([C@@H](C)CO)C[C@@H](C)[C@H](CN(C)S(C)(=O)=O)O2`, the relative growth is inactive: 0.976.
With `Cn1cnc(S(=O)(=O)N2C[C@@H](O)COC[C@@H]3O[C@H](CC(=O)NCc4cccc(F)c4)CC[C@H]32)c1`, the relative growth was inactive: 1.
As to `CCS(=O)(=O)NCC[C@H]1CC[C@H](NC(=O)C2CC2)[C@@H](CO)O1`, the relative growth was inactive: 0.983.
As for `Oc1c(I)cc(Cl)c2cccnc12`, the figure is inactive: 0.463.
Take `C[C@@H]1CN([C@H](C)CO)C(=O)c2ccccc2-c2ccccc2CO[C@@H]1CN(C)C(=O)Nc1cccc(F)c1`: the relative growth is inactive: 1.01.
In the case of `CCCCCCCCCCCCCCCC(=O)CCO`, the relative growth is inactive: 0.936.
For the compound `C[C@H](CO)N1C[C@H](C)[C@H](CN(C)S(=O)(=O)c2ccc(Cl)cc2)Oc2c(NC(=O)c3cnccn3)cccc2C1=O`, the relative growth is inactive: 0.981.
For `COc1ccc(NC(=O)N(C)C[C@H]2OCCCC[C@@H](C)Oc3ccc(NC(=O)c4ccccc4)cc3C(=O)N([C@H](C)CO)C[C@H]2C)cc1`, the relative growth is inactive: 0.992.
`N=C(N=C(N)N)N1CCOCC1`: the relative growth is inactive: 0.952.
For `COc1ccccc1-c1cnc2c(c1)C(=O)N([C@@H](C)CO)C[C@H](C)[C@H](CN(C)C(=O)c1ccncc1)O2`, the relative growth is inactive: 1.
As for `CN1C(=O)c2cc(NC(=O)C3CCOCC3)ccc2OC[C@@H]2O[C@@H](CC(=O)NCCc3ccncc3)CC[C@H]21`, the relative growth was inactive: 0.994.
Consider `CN1CC(=O)Nc2ccc([N+](=O)[O-])cc2C1=O`, for which the relative growth was inactive: 0.993.
As for `C[C@@H]1CN([C@H](C)CO)C(=O)c2cc(NC(=O)Nc3cccc4ccccc34)ccc2O[C@@H](C)CCCCO[C@H]1CN(C)Cc1ccc(C(F)(F)F)cc1`, the relative growth is inactive: 1.06.
Consider `Cc1ccc(S(=O)(=O)N(C)C[C@@H]2Oc3ccc(NS(=O)(=O)c4cn(C)cn4)cc3C(=O)N([C@@H](C)CO)C[C@H]2C)cc1`, for which the relative growth was inactive: 0.995.
Take `C[C@H]1CCCCO[C@H](CN(C)S(=O)(=O)c2ccc(Cl)cc2)[C@@H](C)CN([C@@H](C)CO)C(=O)c2cc(NC(=O)CCC(F)(F)F)ccc2O1`: the relative growth is inactive: 1.04.
As for `C[C@H]1CN([C@@H](C)CO)C(=O)c2cc(NS(=O)(=O)c3cn(C)cn3)ccc2O[C@@H]1CN(C)Cc1ccccc1`, the figure is inactive: 0.971; as for `C[C@H](O)[C@H](O)[C@@H](O)[C@@H](O)/C=N/NC(=O)c1cccc(C(=O)NO)c1`, inactive: 0.981.
With `C[C@H]1CN([C@@H](C)CO)C(=O)Cc2cc(NC(=O)Cn3cnnn3)ccc2O[C@H]1CN(C)C(=O)Nc1ccc(F)cc1` the figure was inactive: 1.03; with `O=C(C[C@@H]1C[C@H]2c3cc(NS(=O)(=O)c4ccc(F)cc4)ccc3O[C@H]2[C@H](CO)O1)N1CCCCC1`, inactive: 0.988; with `C[C@H]1CN([C@@H](C)CO)C(=O)c2cc(NC(=O)Nc3cccc4ccccc34)ccc2O[C@@H]1CN(C)S(=O)(=O)c1ccccc1`, inactive: 1.03.
